Among all 390,000 compounds or so, about 2,200 (0.56%) were called active. This list was built around the results that the source calls inconclusive (neither active nor inactive); the mix of calls is not that of the screen. Calls come from the whole dose curve; as a rule, active = well fitted inhibition curve with a large enough effect; inconclusive = small, poorly fitted or top-dose-only effect; inactive = no such curve, though single readings can be large or run the other way. Where the call is inconclusive, the potency comes from a doubtful curve fit.
biological target: Chromobox protein homolog 1 (Homo sapiens) (UniProt P83916); assay: HTS for Inhibitors of HP1-beta Chromodomain Interactions with Methylated Histone Tails; conditions: AlphaScreen HP1-beta / biotin-H3K9me3 peptide binding; series mostly up to 114 µM; activity change, negative = inhibition: at the top concentration; note: nearly all actives have a fitted effect of over 70% in size
Method in brief: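 HP1-beta protein (50 nM final) preincubated 30 min at room temperature with biotinylated H3(1-18)K9me3 peptide (50 nM) in PBS pH 7.4, 0.01% Tween-20, then compound added for 30 min. AlphaScreen streptavidin donor/nickel chelate acceptor beads (10 ug/mL final), 30 min dark, luminescence read.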
Potency is the fitted concentration of half-maximal effect; tags give direction and shape of the fitted curve.

Sequence of UniProt P83916 (P83916 whole entry, looked up): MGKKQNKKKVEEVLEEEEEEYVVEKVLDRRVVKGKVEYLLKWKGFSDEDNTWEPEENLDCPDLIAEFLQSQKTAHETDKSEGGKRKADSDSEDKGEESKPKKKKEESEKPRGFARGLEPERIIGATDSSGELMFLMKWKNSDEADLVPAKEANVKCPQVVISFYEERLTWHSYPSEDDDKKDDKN

SMILES | Potency | activity change, negative = inhibition
Cc1ccc(CN2CCN(/N=C/c3cc(Br)cc(Br)c3O)CC2)cc1 | inconclusive: 39.8 µM [inhibitor, single point] | 
Cc1ccc(S(=O)(=O)NCC2CCC(C(=O)NCc3cccs3)CC2)cc1 (stereo unspecified) | inconclusive: 89.1 µM [inhibitor, single point] | 
Cc1onc(-c2ccccc2)c1C(=O)Nc1sc2c(c1C(N)=O)CCC2 | inconclusive: 35.5 µM [inhibitor, partial curve, poor fit] | 
O=C1C=C(c2ccccc2)C[C@H](c2cccs2)[C@H]1n1nnc([N+](=O)[O-])n1 | inconclusive: 35.5 µM [inhibitor, partial curve] | 
CNC(=O)c1ccc2nc(-c3ccco3)c(-c3ccco3)nc2c1 | active: 17.8 µM | 
COC(=O)COc1ccc2c(c1)O/C(=C\c1ccco1)C2=O |  | inactive: -18.9%
COc1ccc(Nc2nc(Nc3ccc(OC)cc3OC)nc(N3CCN(C)CC3)n2)c(OC)c1 | inconclusive: 50.1 µM [inhibitor, partial curve, poor fit] | 
CCOc1ccccc1N1CCN(C/C=C/c2ccc(N(C)C)cc2)CC1 | active: 25.1 µM | 
O=C1/C(=C/c2ccc(N3CCCC3)cc2)NC(=S)N1C1CC1 | inconclusive: 39.8 µM [inhibitor, single point] | 
CN(C)S(=O)(=O)c1ccc(C(=O)Nc2c(C(=O)Nc3ccc(F)cc3)oc3ccccc23)cc1 |  | inactive: 28.7%
COc1ccc2sc(-c3ccccc3OC)c(-c3ccc(OCCN4CCCC4)cc3)c2c1 | inconclusive: 44.7 µM [inhibitor, partial curve, poor fit] | 
CCOc1ccccc1C(=O)Nc1nn[nH]n1 | inconclusive: 89.1 µM [inhibitor, single point] | 
CCOc1ccc(N2C(N)=NC(N)=NC2(C)C)cc1 | inconclusive: 89.1 µM [inhibitor, single point] | 
CCOC(=O)c1c(-c2ccccc2)csc1NC(=S)N(CC)CC |  | inactive: 14.8%
COc1cc(C(CCN2CCCC2)c2c(OC)cc(OC)c3c2OC(=O)CC3c2ccc(N(C)C)cc2)cc(OC)c1OC (stereo unspecified) | inconclusive: 28.2 µM [inhibitor, partial curve, poor fit] | 
COc1ccc(Cc2nnc(NC(=O)c3ccccc3F)s2)cc1 |  | inactive: 2.21%
CCCCCC1C(=O)N2C=C(c3ccccc3)c3ccccc3N2C1=O (stereo unspecified) | inconclusive: 56.2 µM [inhibitor, single point] | 
CN(CCOc1ccccc1)C(=O)c1cc(-c2ccco2)nc2ccccc12 | inconclusive: 17.8 µM [inhibitor, partial curve, poor fit] | 
CN(C)CCOCCOc1ccccc1-c1ccccc1 | inconclusive: 14.1 µM [inhibitor, single point] | 
CC1CN(CCCOc2ccccc2[N+](=O)[O-])CC(C)O1 (stereo unspecified) | inconclusive: 15.8 µM [inhibitor, full curve] | 
CN(C)c1cc2c3ccccc3n(C)c2cc1N | active: 44.7 µM | 
O=c1oc2c3c4c(cc2s1)CCCN4CCC3 | inconclusive: 20 µM [inhibitor, full curve, poor fit] | 

SMILES | Potency | activity change, negative = inhibition
COC(CSc1nc(N)c2c3c(sc2n1)CN(C)CC3)OC | inconclusive: 89.1 µM [inhibitor, single point] | 
O=C(O)c1cccc(N2C(=O)c3cc([N+](=O)[O-])cc4cc([N+](=O)[O-])cc(c34)C2=O)c1 | inconclusive: 35.5 µM [inhibitor, partial curve, poor fit] | 
CN(C)c1c(F)cc(C(=O)NCc2ccccc2)cc1F |  | inactive: 41.3%
COc1ccc(CCN2C(=O)C=CC2=O)cc1OC | inconclusive: 8.91 µM [inhibitor, partial curve, poor fit] | 
CCOC(=O)C1CCCN(C(=O)/C=C/c2ccccc2[N+](=O)[O-])C1 (stereo unspecified) |  | inactive: 37.9%
NC(=O)C1CCCCc2c1[nH]c1ccc(Cl)cc21 (stereo unspecified) |  | inactive: 5.46%
CC(C)n1cnc2c(NCc3ccccc3)nc(NCc3ccccc3)nc21 | inconclusive: 35.5 µM [inhibitor, partial curve] | 
Cc1ccc(Cl)cc1NC(=O)c1csnn1 | inconclusive: 31.6 µM [inhibitor, partial curve, poor fit] | 
CC(OC(=O)c1ccc(S(=O)(=O)NCc2ccco2)cc1)C(=O)Nc1ncc(Cl)cc1Cl (stereo unspecified) | inconclusive: 39.8 µM [inhibitor, single point] | 
CCNc1ccc(Br)cc(C(=O)/C=C/c2ccc(Cl)cc2Cl)c1=O | inconclusive: 14.1 µM [inhibitor, full curve] | 
CCOc1ccc(Nc2nc(N)c(C(=O)c3ccccc3Cl)s2)cc1 | inconclusive: 50.1 µM [inhibitor, partial curve] | 
O=C1C=C(Nc2ccccc2C(=O)O)c2ccccc2C1=O | active: 15.8 µM | 
C(=NN1CCCCCC1)c1ccc2c(c1)OCO2 | inconclusive: 56.2 µM [inhibitor, partial curve, poor fit] | 
CCOc1ccc(Cc2n[nH]c(=S)n2N)cc1 | inconclusive: 25.1 µM [inhibitor, full curve] | 
Cc1ccc(-c2csc(NC(=O)Cc3ccc(F)cc3)n2)o1 | inconclusive: 15.8 µM [inhibitor, full curve] | 
CCOc1ccc(S(=O)(=O)Nc2cccc(-c3ccc(N4CCCC4)nn3)c2)cc1 | inconclusive: 22.4 µM [inhibitor, partial curve, poor fit] | 
COc1ccc(CC2(C)OC(c3ccc([N+](=O)[O-])cc3)=NN2C(C)=O)cc1 (stereo unspecified) | inconclusive: 50.1 µM [inhibitor, partial curve] | 
CCOc1ccc(C(=O)c2ccc([N+](=O)[O-])cc2Cl)cc1 | inconclusive: 50.1 µM [inhibitor, partial curve] | 
COc1ccc(Nc2nc(-c3ccc4c(c3)NC(=O)CO4)cs2)cc1 | inconclusive: 25.1 µM [inhibitor, full curve] | 
O=C(NC(NC(=S)Nc1cc(Cl)ccc1Cl)C(Cl)(Cl)Cl)c1ccco1 (stereo unspecified) | inconclusive: 44.7 µM [inhibitor, partial curve] | 
O=[n+]1cc(-c2cc3ccccc3o2)n([O-])c2c1CCCC2 | inconclusive: 35.5 µM [inhibitor, single point] | 
CCOc1cccc(OCCCNCCCOC)c1 | inconclusive: 50.1 µM [inhibitor, partial curve, poor fit] | 

SMILES | Potency | activity change, negative = inhibition
COc1ccc(OCCCCN2CCC(C)CC2)cc1 | inconclusive: 56.2 µM [inhibitor, single point] | 
COc1ccc(CNc2ccc(Cl)cc2)cc1Cn1ccnc1 | inconclusive: 56.2 µM [inhibitor, single point] | 
CC(=O)OC1COC(N2CCc3cc(Br)c([N+](=O)[O-])cc32)C(OC(C)=O)C1OC(C)=O (stereo unspecified) |  | inactive: 4.48%
CCOc1cc(/C=C/c2ccc3cccc([N+](=O)[O-])c3n2)ccc1O | inconclusive: 17.8 µM [inhibitor, full curve] | 
COc1cc(NC(=O)Nc2cccc(Cl)c2)c(OC)cc1NC(=O)CN1CCCCC1 | inconclusive: 44.7 µM [inhibitor, partial curve] | 
Cc1cccc(N2CCN(c3ccc(N4C(=O)CCCC4=O)cc3[N+](=O)[O-])CC2C)c1 (stereo unspecified) | inconclusive: 17.8 µM [inhibitor, partial curve, poor fit] | 
Cc1ccc(/C=C/C(=O)NCc2cccs2)o1 | inconclusive: 79.4 µM [inhibitor, partial curve] | 
CCCCCN1C2=NCCN2c2ccccc21 | inconclusive: 8.91 µM [inhibitor, single point] | 
COc1ccc(CCN2CN(S(=O)(=O)c3ccc(OC)cc3)c3nc4ccccc4nc32)cc1 | inconclusive: 20 µM [inhibitor, single point] | 
CN1c2ccccc2N(C)C1(C)c1cccc2ccccc12 | inconclusive: 39.8 µM [inhibitor, partial curve] | 
O=C1c2cccc3c([N+](=O)[O-])ccc(c23)C(=O)N1c1ccccn1 |  | inactive: -29.7%
Cc1cc(C(=O)COc2ccc(Cl)cc2Br)c(C)n1C | inconclusive: 89.1 µM [inhibitor, single point] | 
CCCn1nnnc1NCc1ccc(N2CCCC2)cc1 |  | inactive: 12.1%
O=C(c1cccc(F)c1)N1CCN(C2CCCCC2)CC1 | inconclusive: 79.4 µM [inhibitor, partial curve] | 
CCOC(=O)N1CCC(=NNc2ccc(S(=O)(=O)N3CCOCC3)cc2[N+](=O)[O-])CC1 | inconclusive: 31.6 µM [inhibitor, single point] | 
CCN1CCN(Cc2ccc(NC(=O)c3ccc(C)c(NC(=O)C(=O)c4c[nH]c5ccccc45)c3)cc2C(F)(F)F)CC1 | inconclusive: 56.2 µM [inhibitor, partial curve, poor fit] | 
COc1ccc(CC(=O)Nc2ccc(/C(C)=N/NC(=O)c3ccc(OC)cc3OC)cc2)cc1 |  | inactive: 43.4%
COCCCNC1=C(Cl)C(=O)c2ccccc2C1=O | inconclusive: 44.7 µM [inhibitor, partial curve] | 
O=C(NC(=S)Nc1ccc(N2CCCCC2)c(Cl)c1)c1cccs1 | inconclusive: 17.8 µM [inhibitor, full curve, poor fit] | 
CCc1cccc(OCCn2ccnc2)c1 | inconclusive: 56.2 µM [inhibitor, partial curve, poor fit] | 
Cc1cc(C)n(CC(O)COc2ccc(C(C)(C)C)cc2)n1 (stereo unspecified) | inconclusive: 44.7 µM [inhibitor, partial curve, poor fit] | 
O=C(/C=C\c1ccco1)c1ccc(NC(=O)c2ccco2)cc1 | inconclusive: 31.6 µM [inhibitor, partial curve] | 
